# Reference: publication PMC4336329 (PLoS ONE, 2015)
# Screen size: about 310,000 compounds; about 14,000 (4.5%) showed an effect of 50% or more. Effects have a minus sign here. The list shows a part of the results.
# Target: human ether-à-go-go-related gene (hERG) potassium channel (human, UniProt Q12809)
# Experiment: primary screen, population patch clamp on CHO cells stably expressing hERG
# 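Also: peak tail current of the secondary pulse compared with the same well before compound.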
# Chain of human ether-à-go-go-related gene (hERG) potassium channel (Q12809 whole entry, looked up): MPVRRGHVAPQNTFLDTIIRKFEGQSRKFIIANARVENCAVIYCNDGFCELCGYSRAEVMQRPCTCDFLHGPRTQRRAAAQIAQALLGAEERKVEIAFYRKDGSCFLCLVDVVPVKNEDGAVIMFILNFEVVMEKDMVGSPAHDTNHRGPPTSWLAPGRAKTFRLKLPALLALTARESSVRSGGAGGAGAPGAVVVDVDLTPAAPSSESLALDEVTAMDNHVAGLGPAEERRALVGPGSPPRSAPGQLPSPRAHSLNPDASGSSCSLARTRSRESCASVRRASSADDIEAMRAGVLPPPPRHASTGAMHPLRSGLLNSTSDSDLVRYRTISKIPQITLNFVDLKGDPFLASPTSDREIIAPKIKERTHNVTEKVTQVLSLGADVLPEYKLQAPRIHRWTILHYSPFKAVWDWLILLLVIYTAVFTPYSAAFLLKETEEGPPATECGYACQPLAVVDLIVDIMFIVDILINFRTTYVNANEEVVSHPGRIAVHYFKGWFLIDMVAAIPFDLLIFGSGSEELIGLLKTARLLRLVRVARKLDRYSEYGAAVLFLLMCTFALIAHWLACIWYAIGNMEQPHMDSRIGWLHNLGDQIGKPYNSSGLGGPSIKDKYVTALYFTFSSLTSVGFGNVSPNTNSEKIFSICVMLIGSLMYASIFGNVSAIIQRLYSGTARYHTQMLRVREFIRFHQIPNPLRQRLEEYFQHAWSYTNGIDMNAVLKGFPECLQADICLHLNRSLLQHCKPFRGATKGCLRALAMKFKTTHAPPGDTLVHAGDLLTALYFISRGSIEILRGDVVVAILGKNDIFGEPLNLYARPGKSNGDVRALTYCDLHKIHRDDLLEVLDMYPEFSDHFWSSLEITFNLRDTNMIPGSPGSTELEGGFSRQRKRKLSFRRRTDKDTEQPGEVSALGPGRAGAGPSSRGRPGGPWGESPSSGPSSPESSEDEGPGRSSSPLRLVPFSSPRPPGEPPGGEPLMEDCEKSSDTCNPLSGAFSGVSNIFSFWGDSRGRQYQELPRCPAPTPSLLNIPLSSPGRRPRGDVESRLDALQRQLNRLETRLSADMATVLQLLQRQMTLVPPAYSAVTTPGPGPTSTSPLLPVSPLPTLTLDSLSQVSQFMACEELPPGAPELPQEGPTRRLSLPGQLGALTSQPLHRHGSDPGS
row,SMILES,"hERG current change (%, negative = inhibition) at 10uM [%]"
1,CCN(C(=O)CSc1nc2ccccc2c(=O)n1C(C)COC)C1CCS(=O)(=O)C1 (centres unmarked),-22.8
2,Cc1ccc(S(=O)(=O)CCC(=O)NCCC2=CCCCC2)cc1,2.86
3,O=C(CN(Cc1ccccc1Cl)C(=O)CNS(=O)(=O)c1ccccc1)NCC1CCCO1 (centres unmarked),11.3
4,CCCCN(C)C(=O)c1cc2cc3ccc(OC)cc3nc2s1,11
5,CCOC(=O)C1=C(C)NC(=O)NC1c1cccs1 (centres unmarked),11.5
6,CC(C(=O)Nc1nccs1)c1ccc([N+](=O)[O-])cc1 (centres unmarked),-72
7,O=C(Nc1cc(C(=O)Nc2ccccc2C(=O)O)cc(C(=O)Nc2ccccc2C(=O)O)c1)c1ccccc1,7.91
8,Cc1ccc(Oc2nc(-c3ccccn3)nc3ccccc23)cc1,-9.59
9,Fc1ccc(N2CCN(Cc3c[nH]c4ccccc34)CC2)cc1,-68.3
10,COc1ncnc2c1ncn2CC1COC(C)(C)O1 (centres unmarked),15.9
11,Oc1cccc2c(NC(=S)Nc3ccc(SC(F)F)cc3)cccc12,-1.61
12,CC(=O)C1=C(C)N(Cc2ccccc2)C(=O)N[C@H]1c1ccco1,1.2
13,O=C(OCC(=O)N1CCc2ccccc2C1)c1cccnc1Cl,-0.321
14,COc1ccc(NS(=O)(=O)c2cc(NC(=O)c3nn(C)c(=O)c4ccccc34)ccc2OC)cc1,12.2
15,CCCCCc1cc(=O)oc2c(C(CCN3CCCC(C)C3)c3ccc(N(C)C)cc3)c(OC)cc(OC)c12 (centres unmarked),6.65
16,CC(C)NC(=O)NC(=O)COC(=O)c1ccccc1Oc1ccccc1,-8.48
17,O=C1Cc2ccccc2Sc2ccc(O)cc21,16.4
18,CCN1CCN(C(c2cccs2)C(C)NC(=O)C(=O)N2CCCCC2)CC1 (centres unmarked),11.3
19,Cc1ccc(S(=O)(=O)N(C)C)cc1NC(=O)C1CCCC1,2.05
20,Cc1ccc(C(C(=O)NC2CCCC2)N(Cc2ccc3c(c2)OCO3)C(=O)Cc2cccs2)cc1 (centres unmarked),-4.63
21,CC(C)NC(=O)CCNC(=O)c1ccc(F)cc1,3.82
22,O=c1c2ccccc2[nH]c(=S)n1CCCn1ccnc1,-0.744

row,SMILES,"hERG current change (%, negative = inhibition) at 10uM [%]"
1,CC(C)=CCN1CCN(C/C(Cl)=C/c2ccccc2)CC1CCO (centres unmarked),-26.9
2,CC1CCCN(C(=O)c2ccc([N+](=O)[O-])o2)C1 (centres unmarked),21.6
3,CCOc1ccccc1N1CCN(Cc2ccc(Br)s2)CC1,-33.8
4,O=C(O)C1C2CCC(O2)C1C(=O)Nc1ccc(F)c(F)c1 (centres unmarked),26.5
5,Cc1ccc(-n2nc3c(c2NC(=O)c2ccc(Br)o2)CSC3)c(C)c1,-23.4
6,CCOCCCn1c(=NC(=O)c2cccnc2)c(C(=O)OCC)cc2c(=O)n3ccccc3nc21,-70.1
7,CC(=O)Nc1ccc(Nc2cc(N3CCOCC3)c3nonc3c2[N+](=O)[O-])cc1,-4.33
8,O=C(CCCCCN1C(=O)c2cccc3cccc(c23)C1=O)NC1CCS(=O)(=O)C1 (centres unmarked),-7.35
9,NNC(=O)CSc1nc(-c2ccccc2)nc2c1CCCC2,-8.07
10,CCn1cc(C(=O)O)c(=O)c2cc3c(cc21)OCO3,20.5
11,Cc1cc(NS(=O)(=O)c2ccc(NS(=O)(=O)c3ccc(CC(C)C)cc3)cc2)nc(C)n1,28.8
12,O=C(NCCNC(=O)c1ccccc1[N+](=O)[O-])c1ccccc1[N+](=O)[O-],24.7
13,O=C(/C=C/c1ccccc1)NC(=O)c1ccccc1O,9.95
14,CCOc1cc(C2NC(=O)NC(c3ccccc3)=C2C(=O)c2ccccc2)c(Br)cc1OCC(=O)O (centres unmarked),7.86
15,Cc1ccc(-n2nnnc2CSc2nnc(-c3ccc(O)cc3)o2)cc1,-15.4
16,CC(CN1CCN(C)CC1)OC(=O)c1ccc(F)cc1.Cl (centres unmarked),-6.99
17,CC(C)CCNC(=O)C(c1ccncc1)N(C(=O)Cn1nnc(-c2ccc(F)cc2)n1)c1ccccc1F (centres unmarked),-24.2
18,Cc1ccc(S(=O)(=O)/C(C#N)=C/c2c(N3CCN(Cc4ccccc4)CC3)nc3ccccn3c2=O)cc1,5.58
19,COc1cc(OC)c(C2Nc3ccccc3NC3=C2C(=O)CC(C)(C)C3)cc1OC (centres unmarked),8.16
20,Cc1ccccc1NC1=NS(=O)(=O)c2ccccc21,4.25
21,CN(C)n1cccc1/C=C(\C#N)S(=O)(=O)c1ccc(Cl)cc1,3.19
22,Cc1cccc(N(CC(=O)NC2CCCCC2)C(=O)Cn2nnc(-c3ccc(C)o3)n2)c1,1.96

row,SMILES,"hERG current change (%, negative = inhibition) at 10uM [%]"
1,Cn1c(SCC(=O)c2ccc3c(c2)OCCO3)nnc1C(F)(F)F,-18.6
2,Cn1c(CC2C(=O)Nc3ccc(Br)cc32)nc2ccccc2c1=O (centres unmarked),-12
3,Cl.c1ccc2c(c1)oc1c(NCCN3CCOCC3)ncnc12,-5.4
4,CCCCCC(=O)Nc1cccc(C2=NOC3(C2)C[C@H](C(N)=O)N(C(=O)c2ccccc2)C3)c1 (some centres unmarked),-6.55
5,CC(C)(C)c1ccc(CS(=O)(=O)CC(O)CN2CCCC2=O)cc1 (centres unmarked),22.3
6,COc1cc(/C(C)=N/N2CCN(Cc3ccc(C)cc3)CC2)ccc1O,-44.3
7,COc1ccc(NC(=O)c2cc(NC(=O)C3CCCCC3C(=O)O)ccc2N2CCOCC2)cc1 (centres unmarked),-40.5
8,Cc1cccc(OCCSCc2nc3ccccc3[nH]2)c1,-8.03
9,Cl.NC1=NC2(CCCCC2)N(c2ccc(F)cc2)C(N)=N1,-0.741
10,CC(/C=C/c1ccco1)=N/NC(=O)OC(C)(C)C,3.46
11,CCc1nnc(NC(=O)CCC(=O)N2CCN(S(=O)(=O)c3cc(Cl)ccc3OC)CC2)s1,-8.96
12,FC(F)(F)c1nc(NCC2CCCO2)c2nnn(Cc3ccccc3Cl)c2n1 (centres unmarked),4.47
13,COc1ccccc1NC(=O)CCn1c(=O)c2cccn2c2ccccc21,-8.61
14,Cc1cc(C)nc(SCc2nnc(SCC(=O)Nc3c(C)cccc3C)o2)n1,4.72
15,Cc1ccc(C(=O)NC(=S)Nc2cccc3c(C)cc(C)nc23)cc1,6.48
16,O=C(CNC(=O)c1ccco1)Nc1ccc(F)c(Cl)c1,17.2
17,O=C(O)COCC(=O)N1CCCN(c2ccc(C(F)(F)F)cn2)CC1,14.3
18,CC(C)N(C(=O)CSc1nc2ccccc2n1Cc1ccc(F)cc1)C(C)C,-27.3
19,O=C(CSc1ccc(-c2cccnc2)nn1)N1CCCCCC1,23.2
20,Cc1cccc(NC(=O)CCc2c(C)nn(-c3ccc(N4CCCCC4)nn3)c2C)c1,-4.76
21,CCN1C(=O)c2cccc3c(S(=O)(=O)Nc4ccccc4O)ccc1c23,5.39
22,CS(=O)(=O)c1ccc(C(=O)Nc2ccc(-c3nc4ccccc4[nH]3)cc2)cc1,19.3

row,SMILES,"hERG current change (%, negative = inhibition) at 10uM [%]"
1,CC12CCC(C(=O)NNc3ccc([N+](=O)[O-])cc3)(OC1=O)C2(C)C (centres unmarked),-5.09
2,COCCc1nnc(NC(=O)C(C)C)s1,7.35
3,O=C(Nc1nc2ccccc2s1)Nc1ccc([N+](=O)[O-])cc1Cl,26.6
4,Cc1[nH]n(-c2nc(-c3ccc(Cl)cc3)cs2)c(=O)c1N=Nc1ccc(O)cc1,25.4
5,Cc1ccc2nc3c(c(C(=O)OC4CCOC4=O)c2c1)CCCC3 (centres unmarked),-0.191
6,Cc1ccccc1CNC(=O)CCn1nc(C)c2c(C)n(-c3ccccc3)nc2c1=O,3.45
7,COc1ccc(NC(=O)c2cccc(NC(=O)c3ccccc3)c2)c(OC)c1,13.7
8,CCOC(=O)C(CC)(CC)C(=O)/C=C/c1ccc(OC)cc1,-13.7
9,CCC(C)NS(=O)(=O)c1ccc(S(=O)(=O)Nc2cc3c(cc2C(C)=O)OCO3)cc1 (centres unmarked),11.2
10,CC(=O)Oc1c(C)c(C)c2c(c1C)CCC(C)(CCCC(C)CCCC(C)CCCC(C)C)O2 (centres unmarked),10.7
11,OC(CNCCc1ccc(C(F)(F)F)cc1)COc1ccc2ccccc2c1 (centres unmarked),-46.5
12,CC(C)=CC(=O)OCC(=O)Nc1cc(C)ccc1C,27.6
13,CN(C)S(=O)(=O)c1cccc(NC(=S)NCCCn2ccnc2)c1,0.565
14,Cc1ccc(Cl)cc1NC(=S)N(CCCN1CCOCC1)Cc1ccccn1,-34.3
15,COc1ccccc1CNC(=O)C(c1ccccc1)c1ccccc1,18.6
16,CC(NC(=O)/C(C#N)=C/c1ccc(N2CCOCC2)cc1)c1ccccc1 (centres unmarked),-43.3
17,COC(=O)CN1C(=O)CC(C)(C)S(=O)c2ccccc21 (centres unmarked),-1.42
18,CC(C)OC(=O)c1c(NC(=O)CCn2nnc3ccccc32)sc2c1CCCC2,24
19,CC1(C(=O)O)CC(C)(C(=O)O)CC(C)(C(=O)O)C1 (centres unmarked),19.2
20,Cc1nc2ccccn2c1/C(O)=C1\C(=O)C(=O)N(CCN(C)C)C1c1ccco1 (centres unmarked),-20.2
